Consider 15 molecules from PubChem BioAssay AID2202238 (Ras Initiative Chemistry Research Team, Frederick National …, 2025).

This is one part of the list. Shown are side measurements of this screen, not its main read-out; they come without a call.

This experiment deals with GTPase KRas (Homo sapiens) (UniProt P01116). The experiment can be described thus: Covalent labelling of cysteine mutants by fragments, read by mass spectrometry (AID 2202238). The note with it: KRAS G12D cysteine mutants, disulfide tethering, MALDI-TOF labeling, stronger effect = higher value, fragment at 500 µM. More on the design: protein at 5 µM with 500 µM competing thiol for 1.5 h.

The mark [1] stands for this setting: measured here: G60C mutant labeling.
[2] abbreviates: measured here: G75C mutant labeling.
Setting [3] is: measured here: H94C mutant labeling.
Where [4] appears, read: measured here: I36C mutant labeling.
[5] abbreviates: measured here: L120C mutant labeling.
The mark [6] stands for this setting: measured here: M67C mutant labeling.
The mark [7] stands for this setting: measured here: M72C mutant labeling.
The mark [8] stands for this setting: measured here: N26C mutant labeling.
The mark [9] stands for this setting: measured here: N86C mutant labeling.
The mark [10] stands for this setting: measured here: P121C mutant labeling.
[11] abbreviates: measured here: S122C mutant labeling.
The mark [12] stands for this setting: measured here: S136C mutant labeling.

Chain of UniProt P01116 (P01116 whole entry, looked up, the tested form may be a part): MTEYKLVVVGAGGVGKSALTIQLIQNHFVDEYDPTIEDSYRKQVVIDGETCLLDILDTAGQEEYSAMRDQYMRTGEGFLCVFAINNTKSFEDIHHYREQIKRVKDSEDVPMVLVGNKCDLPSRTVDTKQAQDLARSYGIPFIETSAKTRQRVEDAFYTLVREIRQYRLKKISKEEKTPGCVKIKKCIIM

`O=C(NCCS)c1cccc(N2CCOCC2=O)c1` displayed a percent labeling under setting [1] of 30.4%; a percent labeling under setting [2] of 15.2%; a percent labeling under setting [3] of 34.5%; a percent labeling under setting [4] of 24.8%; a percent labeling under setting [5] of 39%; a percent labeling under setting [6] of 34.1%. Moreover, the percent labeling reads like this: under setting [7], 28.6%; under setting [8], 40.2%; under setting [9], 30.7%; under setting [10], 31.3%; under setting [11], 32.8%; under setting [12], 46.8%.

For `O=C(CCS)Nc1cccc(COc2ccc(F)cc2)c1`, the percent labeling came to 13.4% under setting [2]; 15.9% under setting [3]; 24.4% under setting [4]; 13% under setting [5]; 12.6% under setting [6]; 41.9% under setting [7]. In addition, the percent labeling worked out at 21% under setting [9], 13.7% under setting [10], 11.4% under setting [11] and 26.3% under setting [12].

`CCN(CC(=O)NCCS)Cc1ccc(Cl)cc1` returned a percent labeling under setting [1] of 44.6%; a percent labeling under setting [2] of 21.3%; a percent labeling under setting [3] of 35.9%; a percent labeling under setting [4] of 19.4%; a percent labeling under setting [5] of 24.1%; a percent labeling under setting [6] of 31%. The percent labeling came out at 34.6% under setting [7]; 41.2% under setting [8]; 17.5% under setting [9]; 22.4% under setting [10]; 18.2% under setting [11]; 31.1% under setting [12].

Turning to `O=C(CCS)N(Cc1ccc2c(c1)OCO2)C1CCCC1`, the percent labeling under setting [2] was found to be 18.7%; the percent labeling under setting [3] was determined as 38.7%; the percent labeling under setting [4] came out at 24.5%; the percent labeling under setting [5] came to 26.7%; the percent labeling under setting [6] is 30.2%; the percent labeling under setting [7] worked out at 49.8%. The percent labeling is, setting by setting: under setting [9], 23.9%; under setting [10], 24.8%; under setting [11], 16.7%; under setting [12], 44.9%.

The molecule `O=C(CCS)N1CCN(Cc2cc(=O)n3ccccc3n2)CC1` gave a percent labeling under setting [2] of 15%; a percent labeling under setting [3] of 22.1%; a percent labeling under setting [4] of 32.9%; a percent labeling under setting [5] of 26.7%; a percent labeling under setting [6] of 36.1%; a percent labeling under setting [7] of 20.6%. The percent labeling under setting [9] was determined as 25.3%, the percent labeling under setting [10] was found to be 30.7%, the percent labeling under setting [11] turned out to be 24.7% and the percent labeling under setting [12] amounted to 46.9%.

Take `CN1C(=O)C[C@@H](C(=O)NCCS)[C@@H]1c1ccc(F)cc1`: the percent labeling is 45.3% under setting [1]; 17.8% under setting [2]; 37.5% under setting [3]; 32.8% under setting [4]; 35.3% under setting [5]; 41.8% under setting [6]. The same molecule had a percent labeling under setting [7] of 17.6%; a percent labeling under setting [8] of 37.3%; a percent labeling under setting [9] of 26.3%; a percent labeling under setting [10] of 37.7%; a percent labeling under setting [11] of 31.8%; a percent labeling under setting [12] of 49.4%.

Consider `CN(C)c1nc[nH]c(=O)c1NC(=O)CCS`, for which the percent labeling turned out to be 12.7% under setting [2]; 21.7% under setting [3]; 28% under setting [4]; 35.7% under setting [5]; 28.9% under setting [6]; 17.1% under setting [7]. Further, the percent labeling reads like this: under setting [9], 30.5%; under setting [10], 38.7%; under setting [11], 32.2%; under setting [12], 45.5%.

Take `Cn1cc(C(O)C2CCN(C(=O)CCS)CC2)c(=O)n(C)c1=O` (configuration not stated): the percent labeling runs as follows: under setting [2], 7.2%; under setting [3], 24.3%; under setting [4], 28.6%; under setting [5], 28%; under setting [6], 32.8%; under setting [7], 16.2%. The percent labeling was determined as 22.7% under setting [9], 23.7% under setting [10], 24.7% under setting [11] and 43.9% under setting [12].

Regarding `Cc1nn(C)cc1CN(C(=O)CCS)C1CC1`, the percent labeling stood at 13.3% under setting [2]; 30.2% under setting [3]; 34.7% under setting [4]; 28% under setting [5]; 42.8% under setting [6]; 17.8% under setting [7]. The percent labeling came out at 11.9% under setting [9], 27.6% under setting [10], 37% under setting [11] and 52.6% under setting [12].

For `O=C(Cn1cccnc1=O)Nc1ccc(F)c(NC(=O)CCS)c1`, the percent labeling by setting is: under setting [2], 11.1%; under setting [3], 16.7%; under setting [4], 22.5%; under setting [5], 19.2%; under setting [6], 17.9%; under setting [7], 22.4%. In addition, the percent labeling by setting is: under setting [9], 21.5%; under setting [10], 15.2%; under setting [11], 20.3%; under setting [12], 27.2%.

Take `O=C(CCS)NCc1ccc(-n2ccc(C3CC3)n2)cc1`: the percent labeling by setting is: under setting [2], 7.8%; under setting [3], 23.2%; under setting [4], 20.8%; under setting [5], 16.5%; under setting [6], 17.7%; under setting [7], 25.7%. In addition, the percent labeling turned out to be 6.6% under setting [9], 15.6% under setting [10], 14.8% under setting [11] and 26.7% under setting [12].

In the case of `Cc1ccc(-c2noc3nc(C)cc(C(=O)NCCS)c23)cc1`, the percent labeling was determined as 38.1% under setting [1]; 9.4% under setting [2]; 18.2% under setting [3]; 12.5% under setting [4]; 9.8% under setting [5]; 12.9% under setting [6]. The same molecule yielded a percent labeling under setting [7] of 27%; a percent labeling under setting [8] of 25%; a percent labeling under setting [9] of 6%; a percent labeling under setting [10] of 12.1%; a percent labeling under setting [11] of 7.3%; a percent labeling under setting [12] of 16.5%.

On to `CN(CC(=O)NCCS)Cc1cccc(C#N)c1`, for which the percent labeling by setting is: under setting [1], 45.3%; under setting [2], 20.1%; under setting [3], 37.5%; under setting [4], 26.5%; under setting [5], 34.7%; under setting [6], 42.6%. Also, the percent labeling stood at 41.9% under setting [7]; 43.3% under setting [8]; 24.5% under setting [9]; 30% under setting [10]; 34.3% under setting [11]; 59.6% under setting [12].

Turning to `O=C(NCCS)c1ccccc1Cn1ccnn1`, the percent labeling is 29.5% under setting [1]; 11.5% under setting [2]; 31.9% under setting [3]; 26.2% under setting [4]; 30% under setting [5]; 26.1% under setting [6]. Also, the percent labeling is 26.8% under setting [7]; 36.9% under setting [8]; 27.2% under setting [9]; 31.1% under setting [10]; 34.1% under setting [11]; 40.6% under setting [12].

As for `CN(C(=O)CCS)C1CCN(CC(F)(F)F)CC1`, the percent labeling runs as follows: under setting [2], 9.6%; under setting [3], 34.2%; under setting [4], 32.8%; under setting [5], 35.8%; under setting [6], 35.7%; under setting [7], 17.5%. Also, the percent labeling worked out at 21.2% under setting [9], 36.5% under setting [10], 37% under setting [11] and 50.7% under setting [12].
